Laboratory results from publication PMC4336329 (PLoS ONE, 2015).
In all, about 310,000 compounds went through this assay and about 14,000 (4.5%) showed an effect of 50% or more. Effects have a minus sign here. The list shows a part of the results.

target: human ether-à-go-go-related gene (hERG) potassium channel (human, UniProt Q12809); experiment: primary screen, population patch clamp on CHO cells stably expressing hERG
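Note: peak tail current of the secondary pulse compared with the same well before compound.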

Chain of human ether-à-go-go-related gene (hERG) potassium channel (Q12809 whole entry, looked up): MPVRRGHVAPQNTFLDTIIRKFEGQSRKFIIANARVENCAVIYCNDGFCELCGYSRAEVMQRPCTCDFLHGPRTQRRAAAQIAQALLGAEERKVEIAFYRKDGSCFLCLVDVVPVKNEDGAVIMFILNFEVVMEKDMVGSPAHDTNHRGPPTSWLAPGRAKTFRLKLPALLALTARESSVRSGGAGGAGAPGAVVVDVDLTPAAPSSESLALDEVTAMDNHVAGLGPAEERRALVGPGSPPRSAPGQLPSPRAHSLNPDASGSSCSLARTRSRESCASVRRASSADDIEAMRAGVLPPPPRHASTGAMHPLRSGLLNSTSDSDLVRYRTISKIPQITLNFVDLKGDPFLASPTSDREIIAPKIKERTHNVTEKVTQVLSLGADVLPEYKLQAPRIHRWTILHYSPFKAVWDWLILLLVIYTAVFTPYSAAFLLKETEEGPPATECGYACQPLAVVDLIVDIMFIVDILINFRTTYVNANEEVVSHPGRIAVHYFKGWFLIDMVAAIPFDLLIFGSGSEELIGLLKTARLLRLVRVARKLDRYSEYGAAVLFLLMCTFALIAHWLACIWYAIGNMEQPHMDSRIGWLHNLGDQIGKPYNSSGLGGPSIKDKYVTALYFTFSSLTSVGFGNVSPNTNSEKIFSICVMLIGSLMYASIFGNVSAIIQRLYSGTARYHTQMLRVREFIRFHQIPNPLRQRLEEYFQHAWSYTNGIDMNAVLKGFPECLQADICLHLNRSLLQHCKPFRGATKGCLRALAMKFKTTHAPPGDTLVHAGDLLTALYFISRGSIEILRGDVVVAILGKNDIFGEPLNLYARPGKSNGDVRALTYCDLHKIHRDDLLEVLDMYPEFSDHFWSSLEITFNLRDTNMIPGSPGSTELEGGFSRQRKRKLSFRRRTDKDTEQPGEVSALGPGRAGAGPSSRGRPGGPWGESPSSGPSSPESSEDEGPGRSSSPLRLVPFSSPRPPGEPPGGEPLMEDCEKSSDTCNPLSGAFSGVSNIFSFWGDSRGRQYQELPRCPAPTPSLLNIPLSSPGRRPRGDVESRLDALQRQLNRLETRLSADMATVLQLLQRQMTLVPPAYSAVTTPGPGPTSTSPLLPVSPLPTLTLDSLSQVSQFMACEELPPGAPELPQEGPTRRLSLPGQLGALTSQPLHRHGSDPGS

| Compound | hERG current change (%, negative = inhibition) at 10uM |
| --- | --- |
| COCc1cc(=O)[nH]c2cc(NC(=O)C(F)(F)F)c(C)cc12 | -5.35% |
| CC(C)NC(=O)NC(=O)CSc1ccc(S(=O)(=O)N2CCCC2)cn1 | -10.8% |
| CCOC(=O)CSC1=Nc2ccccc2C2=NC(CC(=O)NCc3cccs3)C(=O)N12 (centres unmarked) | -22.8% |
| Nc1c(C(=O)Nc2ccccc2)sc2nc(-c3cccnc3)ccc12 | -3.23% |
| CCOC(=O)c1c(-c2ccccc2)csc1NC(=S)NC(=O)c1ccccc1 | 21% |
| COc1ccccc1NC(=O)CC1CCCC1 | 15.4% |
| COc1ccc(N(C(=O)c2ccccc2OC(C)=O)C(C)C2CC2)cc1 (centres unmarked) | 2.38% |
| CCCNC(=O)Cn1c(-c2ccc(F)cc2)cc(C(=O)OCC)c1C | 5.8% |
| O=C(CCc1ccccc1)NC(NC(=S)Nc1ccc(Cl)cc1)C(Cl)(Cl)Cl (centres unmarked) | 8.38% |
| CCCC(=O)Nc1cccc(Oc2nc(C)cc(C)c2C#N)c1 | 6.51% |
| CN(C)CC(C)(C)CNC(=O)c1cc(Br)cc(Br)c1O | -5.01% |
| CC(C)C[C@@H](CO)N1CCN(CC(C)C)CCC1=O | 4.64% |
| CCOC(=O)COc1nc(C)c(Br)c(OC)n1 | 5.01% |
| CCn1c(=NC(=O)C2COc3ccccc3O2)sc2c(OC)ccc(OC)c21 (centres unmarked) | 8.6% |
| Cn1c(=O)[nH]c(=O)c2c1nc(NN)n2CCOc1ccccc1 | 19.5% |
| O=C(Nc1ccccc1F)c1ccc2ncsc2c1 | 3.92% |
| CC(NC(=S)NCCc1ccccc1)C(c1cccs1)N1CCN(C)CC1 (centres unmarked) | -35.7% |
| CCOC(=O)[C@@H]1[C@H]2COc3ccc(Br)cc3[C@@H]2N2C(=O)N(c3ccc(OC)cc3)C(=O)[C@]12C | 10% |
| C=CCn1c(=O)c2ccccc2n2c(SCC(=O)/C(C#N)=C(\C)N)nnc12 | -2.26% |
| CN(CC(=O)NCCc1ccccc1)S(=O)(=O)c1ccc(Br)cc1 | -17.8% |
| Nc1nc(N)c(C=Nc2ccc(Br)cc2)c(Nc2ccc(Br)cc2)n1 | 24.2% |
| CCOc1ccc(S(=O)(=O)NCc2ccccn2)cc1NC(=O)c1ccccc1 | -17.1% |

| Compound | hERG current change (%, negative = inhibition) at 10uM |
| --- | --- |
| COC(=O)CS(=O)(=O)c1cc(Br)cc2c1N(C(C)=O)CC2 | 5.36% |
| CCC(=O)Nc1ccc(C(=O)CSc2nc3ccc(C)cc3[nH]2)cc1 | 6.93% |
| O=C(NC1(C(F)(F)F)NC(=O)N(c2ccccc2F)C1=O)c1ccncc1 (centres unmarked) | 4.71% |
| Cc1nc(C(=O)Nc2ccccc2)sc1C1(C)CC(c2cccc([N+](=O)[O-])c2)=NO1 (centres unmarked) | 8.12% |
| O=C(NC1CCN(C(=S)NCc2ccco2)CC1)c1ccc(F)cc1 | -51.6% |
| CCN(CC(=O)Nc1ccc(NC(C)=O)cc1)C(=O)Cc1c(Cl)cccc1Cl | 13.5% |
| COc1ccc(N=c2oc3c(OC)cccc3cc2C(=O)NCc2ccco2)cc1OC | -9.99% |
| O=C1C=C(N2CCOCC2)c2ccccc2C1=O | -1.23% |
| COc1ccc2c(c1)c1nnc(SCC(=O)Nc3ccccc3F)nc1n2C | 3.96% |
| CC(CCc1ccccc1)NC(=O)c1cccc([N+](=O)[O-])c1 (centres unmarked) | -8.01% |
| COc1ccc(C2/C(=C(/O)c3ccccc3)C(=O)C(=O)N2c2ccccn2)cc1 (centres unmarked) | 20.2% |
| COc1ccc(Br)cc1CN1CCCCCCC1 | -39.9% |
| C/C(CC(=O)NCCc1ccccc1)=N\NC(=O)COc1ccc(Br)cc1 | -21.3% |
| Cn1nnc2cc(NC(=O)N3CCN(c4ccccn4)CC3)ccc21 | 0.203% |
| CCc1noc(C)c1C(=O)Nc1nc(-c2ccccc2)c(C(C)=O)s1 | -32.1% |
| Cc1ccc(/C=C/C(=O)O)cc1S(=O)(=O)N1CCCc2ccccc21 | 12.2% |
| CCOC(=O)c1cnc2c(cnn2C)c1NCCCN(C)C | -51.7% |
| CCN(CC)C(=O)CSc1nnc(C2CCCCC2)o1 | 5.14% |
| COc1cccc(C(=O)N2CCC(CCC(=O)Nc3cccc(C)c3)CC2)c1 | -28.6% |
| O=C(O)c1c(-c2ccccc2)oc2ccc(O)cc12 | 14.6% |
| CCOc1ccccc1N1CCN(CC(=O)NCCc2ccc(S(N)(=O)=O)cc2)CC1 | 12.2% |
| CSc1nc2c(c(=O)n1-c1ccc(C)cc1)SCC2 | 12.5% |
